# In the supplement of paper PMC9135407:
# Where “and” joins values, the source holds several entries; their conditions need not be identical. Equal values may be shown once. Where a name gives a salt, the structure may show the parent alone. Screen size: about 5,800 compounds; about 620 (11%) showed activity.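 Rule for the calls: active = score above a cut-off or among the top three wells of a plate; in these data no inactive exceeds 0.85.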 Only a part is listed here, and it is no random draw.
# System: primary human hepatic stellate cells (donor 1)
# Assay: scaled lipid accumulation score (0 = DMSO-like, 1 = nortriptyline-like); higher = stronger HSC inactivation (lipid re-accumulation), active = hit call of the paper
# Settings: 48 h
# [1] = library stock concentration: 3.33 mM
# [2] = library stock concentration: 10 mM
# [3] = library stock concentration: 1 mM
structure (smiles),measurement,setting,value
CC(C)(C)c1cc(C(=O)C(C#N)=NNc2cccc(Cl)c2)no1,scaled lipid accumulation score,[1],inactive: ≤ -0.009
same,scaled lipid accumulation score,[2],inactive: ≤ 0
C#C[C@]1(O)CC[C@H]2[C@@H]3[C@H](C)CC4=C(CCC(=O)C4)[C@H]3CC[C@@]21C [Tibolone],scaled lipid accumulation score,[3],inactive: ≤ 0
same,scaled lipid accumulation score,library stock concentration: 6.4 mM,inactive: ≤ 0
C#C[C@]1(O)CC[C@H]2[C@@H]3[C@H](C)CC4=C(CCC(=O)C4)[C@H]3CC[C@@]21C,scaled lipid accumulation score,[2],inactive: ≤ 0
OC[C@@H](O)[C@@H](O)[C@H](O)[C@@H](O)CO,scaled lipid accumulation score,[2],inactive: 0.003
OC[C@@H](O)[C@@H](O)[C@H](O)[C@@H](O)CO [Sorbitol],scaled lipid accumulation score,[1],inactive: ≤ 0
same,scaled lipid accumulation score,[2],inactive: ≤ 0
S=C=Nc1ccc(N=C=S)cc1,scaled lipid accumulation score,[2],inactive: ≤ 0
O=C(O)COc1cccc(-c2ocnc2-c2nc(-c3ccccc3)c(-c3ccccc3)o2)c1,scaled lipid accumulation score,[2],inactive: ≤ -0.006
C[C@@H](CN1CCC(n2c(=O)[nH]c3cc(Cl)ccc32)CC1)NC(=O)c1ccc2ccccc2c1,scaled lipid accumulation score,[3],inactive: 0.02
C=CC(=O)Nc1cc2c(Nc3ccc(F)c(Cl)c3)ncnc2cc1C#CC(C)(C)N1CCN(C)CC1,scaled lipid accumulation score,library stock concentration: 400 uM,active: 0.879
CNCC[C@H](Oc1ccc(C(F)(F)F)cc1)c1ccccc1 [S-(+)-Fluoxetine hydrochloride],scaled lipid accumulation score,[2],inactive: 0.403
Cc1nc(-c2ccccc2)c(-c2ccncc2)o1,scaled lipid accumulation score,[1],inactive: ≤ 0
CCCCC(=O)O[C@]1(C(=O)CO)[C@@H](C)C[C@H]2[C@@H]3CCC4=CC(=O)C=C[C@]4(C)[C@@]3(F)[C@@H](O)C[C@@]21C [Betamethasone valerate],scaled lipid accumulation score,[2],inactive: ≤ 0
CC(=O)OCC(=O)[C@@]1(O)CC[C@H]2[C@@H]3CCC4=CC(=O)C=C[C@]4(C)[C@@]3(F)[C@@H](O)C[C@@]21C [Isoflupredone acetate],scaled lipid accumulation score,,inactive: ≤ 0
COc1cc(C(=O)N2CCOCC2)cc(OC)c1OC [Trimetozine],scaled lipid accumulation score,library stock concentration: 7.1 mM,inactive: ≤ 0
CC(=O)OCC(=O)[C@@]1(O)CC[C@H]2[C@@H]3CCC4=CC(=O)CC[C@]4(C)[C@H]3C(=O)C[C@@]21C [Cortisone acetate],scaled lipid accumulation score,[1],inactive: ≤ 0
same,scaled lipid accumulation score,library stock concentration: 5 mM,inactive: ≤ -0.001
same,scaled lipid accumulation score,[2],inactive: 0.025 and inactive: ≤ 0
CC(=O)OCC(=O)[C@@]1(O)CC[C@H]2[C@@H]3CCC4=CC(=O)CC[C@]4(C)[C@H]3C(=O)C[C@@]21C [Cortisone 21-acetate],scaled lipid accumulation score,[2],inactive: 0.199
CC(=O)OCC(=O)[C@@]1(O)CC[C@H]2[C@@H]3CCC4=CC(=O)CC[C@]4(C)[C@H]3C(=O)C[C@@]21C,scaled lipid accumulation score,[2],inactive: ≤ 0
FC(F)(F)c1ccc(/C=C/c2nc(COc3ccc(CCCCn4ccnn4)cc3)co2)cc1 [Mubritinib (TAK 165)],scaled lipid accumulation score,[1],inactive: ≤ 0
same,scaled lipid accumulation score,[2],inactive: ≤ 0
FC(F)(F)c1ccc(/C=C/c2nc(COc3ccc(CCCCn4ccnn4)cc3)co2)cc1,scaled lipid accumulation score,[2],inactive: 0.003
O=C1c2ccccc2C(=O)c2c(NCCc3ccc(O)cc3)ccc(NCCc3ccc(O)cc3)c21,scaled lipid accumulation score,[2],inactive: 0.079
CC(Oc1cc(-c2cnn(C3CCNCC3)c2)cnc1N)c1c(Cl)ccc(F)c1Cl [(S)-crizotinib],scaled lipid accumulation score,[1],inactive: 0.504
same,scaled lipid accumulation score,[2],inactive: 0.396
CCCCC/C=C\C/C=C\C/C=C\CCCCC(=O)OC [.gamma.-Linolenic Acid methyl ester],scaled lipid accumulation score,[3],inactive: ≤ 0
O=C1c2c(O)cc(O)cc2OC(c2ccc(O)c(O)c2)C1O (configuration not stated) [Taxifolin (Dihydroquercetin)],scaled lipid accumulation score,[1],inactive: 0.018
same,scaled lipid accumulation score,[2],inactive: ≤ 0
O=C1c2c(O)cc(O)cc2OC(c2ccc(O)c(O)c2)C1O (configuration not stated) [(?)-Taxifolin],scaled lipid accumulation score,[2],inactive: ≤ 0
O=C1c2c(O)cc(O)cc2O[C@H](c2ccc(O)c(O)c2)[C@H]1O,scaled lipid accumulation score,[2],inactive: ≤ 0
COc1ccc(Nc2nccc(NCCO)n2)cc1 [Cardiogenol C (hydrochloride)],scaled lipid accumulation score,[3],inactive: ≤ 0
COc1ccc(Nc2nccc(NCCO)n2)cc1 [Cardiogenol C hydrochloride],scaled lipid accumulation score,[2],inactive: ≤ 0
CN(C)CCCN1c2ccccc2Sc2ccccc21.Cl [Promazine hydrochloride],scaled lipid accumulation score,[2],active: 0.923
O=C(O)c1cc(O)c2c(c1)[C@H]([C@H]1c3cc(C(=O)O)cc(O)c3C(=O)c3c(O[C@@H]4O[C@H](CO)[C@@H](O)[C@H](O)[C@H]4O)cccc31)c1cccc(O[C@@H]3O[C@H](CO)[C@@H](O)[C@H](O)[C@H]3O)c1C2=O [Sennoside a],scaled lipid accumulation score,library stock concentration: 2.3 mM,inactive: ≤ 0
same,scaled lipid accumulation score,[2],inactive: ≤ -0.027
CC(=O)Oc1cc(C(C)C)c(OCCN(C)C)cc1C [Moxisylyte hydrochoride],scaled lipid accumulation score,,inactive: ≤ 0
CC(=O)Oc1cc(C(C)C)c(OCCN(C)C)cc1C [Moxisylyte hydrochloride],scaled lipid accumulation score,[2],inactive: ≤ -0.055
Br.NC(=O)C(c1ccccc1)(c1ccccc1)[C@@H]1CCN(CCc2ccc3c(c2)CCO3)C1 [Darifenacin HBr],scaled lipid accumulation score,[2],active: 1.03
Cc1ccc(C(=O)Nc2ccc(CN3CCN(C)CC3)c(C(F)(F)F)c2)cc1C#Cc1cnc2cccnn12,scaled lipid accumulation score,[1],active: 1.06
CC(c1cc2ccccc2s1)N(O)C(N)=O (configuration not stated),scaled lipid accumulation score,[2],inactive: ≤ 0
CC(c1cc2ccccc2s1)N(O)C(N)=O (configuration not stated) [Zileuton],scaled lipid accumulation score,[1],inactive: ≤ 0
same,scaled lipid accumulation score,[2],inactive: ≤ 0
Nc1ccc(-c2cccc3c(=O)cc(N4CCOCC4)oc23)cc1,scaled lipid accumulation score,[2],inactive: ≤ -0.001
CC[N+](C)(CC)CC(=O)Nc1c(C)cccc1C [N-Methyllidocaine iodide],scaled lipid accumulation score,[2],inactive: ≤ -0.006
